First the molecules themselves.
T1: UNK ZnF1-3 (human, UniProt Q9C0B0 31-174)
T1 sequence: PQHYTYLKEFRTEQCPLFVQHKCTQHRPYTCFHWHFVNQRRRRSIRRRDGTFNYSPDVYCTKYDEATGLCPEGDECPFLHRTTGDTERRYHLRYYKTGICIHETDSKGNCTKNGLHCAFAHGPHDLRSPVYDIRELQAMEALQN

B1: 161402982_161417958_180_3pUTR_ENSMUSG00000061778_ENSMUST00000112247|mouse|control|control (ssRNA)
RNA: GGGAGUUCUACAGUCCGACGAUCUAUGUCUCCAGUAUAAGUAACUUUCAACCCAGUUAUCAUCUUGCUGAAGCCUUUCAACAUCACGUGAAUCAUAUUUUUCUGACUUUUCUGUCACAUACUCAGCUUCGAAUCUCCGCCGGGCAACAGAGGAUUGAGCAUCA
B2: chr2:158593201:158593202:-_ENSG00000115170_ENST00000434821|hu_hu|motif|central (ssRNA)
RNA: GGGAGUUCUACAGUCCGACGAUCUGAAAUCUUUGCUUCUAAAUCAGUAAUAUAUUCGGUGGUGUCACGUGGGUAAUGGCGGAAUACGUUCUGCAUAUGAACUGAAAAAAAGUUACAGUCUACACACAUACAAAUGUGAAGCACCAACAGAGGAUUGAGCAUCA
B3: chr12:105536279:105536280:+_ENSG00000136051_ENST00000332180|hu_mus|hu_hu_hu_mus_True|8_48 (ssRNA)
RNA: GGGAGUUCUACAGUCCGACGAUCAGCACUGAACAUGUAAUGUAAUCUGGCUGCAUCGACAGCAUUUUCAUAUACAUCAUCUAAAUAAAUUGGGAAGACAGCGCGAUGCCAGUAUAAAAAACAGCAGUCACAUUGUGCUUGGACCAACAGAGGAUUGAGCAUCA
B4: chr14:90871172:90871173:+_ENSG00000198668_ENST00000553542|hu_mus|FALSE|FALSE (ssRNA)
RNA: GGGAGUUCUACAGUCCGACGAUCACCAAUACAUGCAGACUUUGUGUGUGGACAGAGGGGCUUCUGACAUUCAGCUUCGCUAGAUACAAACAGAAUGAAGAAAUGAACUUUUUCUUUUUUUUUCUUUUUUUUGUAAGAGGUAAGCAACAGAGGAUUGAGCAUCA
B5: chr16:94690093:94690094:+_ENSMUSG00000040785_ENSMUST00000117648|mus_hu|mus_mus_mus_hu_True|8_38 (ssRNA)
RNA: GGGAGUUCUACAGUCCGACGAUCGGGCUGGGAUGACGGACACACAGCCUCGAUUCCAGGGGGAAAAAGUCUUAGUCGAUACUAAUUAAAAAGUGUUUUUAUAAUUGGAAAAUCAGAUUACAUCUAUUUGAAUCAUAAAGCAAACAACAGAGGAUUGAGCAUCA
B6: chr14:66974463:66974464:+_ENSMUSG00000022044_ENSMUST00000074523|mus_hu|mus_mus_mus_hu_False|48_68 (ssRNA)
RNA: GGGAGUUCUACAGUCCGACGAUCUUGUAGGACGACUUAUUCAGGGGAUCGGCCAGGAAGCAGGAGCAGAACAGAGACACCAGCGGGAGUUCCUUCAUCUUCUCUUUGUAGGCAGCAAGGGUCAUGUUUCUGGGAUCUGGUGGCCAACAGAGGAUUGAGCAUCA

The other results are listed elsewhere or left out.

The target of the experiment is T1, UNK ZnF1-3. In words: nsRBNS (natural sequence RNA bind-n-seq); RBNS binding buffer (assumed for nsRBNS): 25 mM Tris pH 7.5, 150 mM KCl, 3 mM MgCl2, 0.01% Triton X-100, 500 ug/ml BSA, 20 U/ml SUPERase-In, 4 C; UNK is unkempt and MSI1 is Musashi-1; names of the RNAs are library labels; protein concentration not given here; high values mean tight binding.
B1 gave a binding signal of 0.563 enrichment R.
Molecule B2 yielded a binding signal of 1.23 enrichment R.
In the case of B3, the binding signal worked out at 2.98 enrichment R.
The molecule B4 came in with a binding signal of 1.23 enrichment R.
The molecule B5 had a binding signal of 1.24 enrichment R.
B6 yielded a binding signal of 2.91 enrichment R.

The values are drawn from PMC12136788.
